Assay results from PubChem BioAssay AID1347417 (National Center for Advancing Translational Sciences (NCATS), 2020).
The campaign covered roughly 120,000 compounds. About 5,300 (4.4%) were called active. Inconclusive means that the source gave no clear call. Such entries were picked first, then a sample of the others. Calls come from the whole dose curve; as a rule, active = well fitted inhibition curve with a large enough effect; inconclusive = small, poorly fitted or top-dose-only effect; inactive = no such curve, though single readings can be large or run the other way. A potency beside an inconclusive call is a rough fit, not a confirmed value.

Test: qHTS Primary assay for Inhibitors of Plasmodium falciparum Dd2 growth in vitro; note: nearly all actives have a fitted effect of over 65% in size;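 for activity, negative = inhibition: plate controls were DMSO vehicle for no effect and reference drug for full effect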
Details: P. falciparum Dd2 growth, SYBR Green, 72 h; activity, negative = inhibition: at 28.9 µM (top of the series) unless noted; series mostly up to 28.9 µM
Outline: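 Infected erythrocytes (Dd2, 0.3% parasitemia, 2.5% hematocrit final) are added to compound in RPMI-1640/Albumax II medium, grown 72 h at 37C in low oxygen, then lysed with saponin/Triton-X containing SYBR Green and read by fluorescence.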
Potency is the fitted concentration of half-maximal effect; tags give direction and shape of the fitted curve.

Compound | Potency | activity, negative = inhibition | outcome
COc1cccc(C(=O)N2CCCC3(C2)NC(=O)N(Cc2ccc(C)cc2)C3=O)c1OC (stereo not drawn) | inconclusive: 12.6 µM [inhibitor, single point] |  | 
COc1ccc(Cn2c(C3CCN(C(=O)c4ccc(Cl)cc4)CC3)n[nH]c2=O)cc1 | inconclusive: 8.91 µM [inhibitor, partial curve, poor fit] |  | 
COC[C@@H]1CN(C(=O)c2cccc(OC(F)(F)F)c2)C[C@H]1C(N)=O | inconclusive: 1.12 µM [inhibitor, full curve] |  | 
FC(F)(F)c1ccc(CN2CC[C@H](c3nc4ccc(C(F)(F)F)cc4[nH]3)C2)cc1 | inconclusive: 15.8 µM [inhibitor, single point] |  | 
CCN(CC1CCN(CCc2ccccc2C)CC1)C(=O)C1C=CCN1 (stereo not drawn) | inconclusive: 20 µM [inhibitor, single point] |  | 
CN(C(=O)Nc1ccccc1)C1CCCc2ccccc21 (stereo not drawn) | active: 15.8 µM |  | 
COc1ccc(C(=O)N[C@@H]2CCC[C@@H]2C(=O)NCCCn2cccn2)cc1 |  | inactive: 11.2% | 
Cc1nc(N2CCCC2)ncc1C(=O)NCc1ccc(Cl)cc1 |  | inactive: 56.8% | 
Cc1noc(C)c1-c1cc2cc(C(C)C)oc2c(NC2CCOCC2)n1 | active: 11.2 µM |  | 
Cn1nc(-c2ccc3ccccc3c2)cc1[C@H]1CN2CC[C@H]1C[C@@H]2CNS(=O)(=O)c1ccccc1 | inconclusive: 11.2 µM [inhibitor, single point] |  | 
COc1cccc(-n2c(SCC(=O)Nc3cccc(C)c3)nc3c([nH]c4ccccc43)c2=O)c1 | active: 10 µM |  | 
O=C(CSc1ccccc1)N1CCc2c([nH]c3ccccc23)C1c1ccc(Cl)cc1 (stereo not drawn) | inconclusive: 17.8 µM [inhibitor, single point] |  | 
Cc1cccc(S(=O)(=O)c2cn(C)c3cc(N4CCCCCC4)c(F)cc3c2=O)c1 |  |  | inactive
CCN(CCN1CCCC1)C(=O)C1CCC(=O)N(Cc2ccccc2F)C1 (stereo not drawn) |  | inactive: -16.4% | 
Cc1ccccc1OCc1nc(C2CN(C(=O)NCc3ccccc3)C2)no1 | inconclusive: 10 µM [inhibitor, single point] |  | 
COc1cccc(C(=O)c2cn(CC(=O)Nc3cc(Cl)c(OC)cc3OC)c3nc(C)ccc3c2=O)c1 | inconclusive: 3.98 µM [inhibitor, single point] |  | 
Cn1nccc1C(=O)N1CCC(c2cc(-c3ccc(F)cc3)n[nH]2)CC1 |  | inactive: 4.66% [at 5.79 µM] | 
Cc1cccc(CC(=O)N2CC(c3nc(CCc4ccccc4)no3)C2)c1 |  | inactive: -7.8% | 
CC(C)C(=O)N1CCC2(CC1)OC(=O)N(CCOc1ccccc1)C2(C)c1cccnc1 (stereo not drawn) | inconclusive: 31.6 µM [inhibitor, single point] |  | 
C[S+](=O)([O-])N1CC2(CCN(Cc3cccnc3)CC2)Cc2ccccc21 | inconclusive: 7.94 µM [inhibitor, partial curve, poor fit] |  | 
CN1CCc2c([nH]c3ccccc23)C12CCN(C(=O)C1CCC1)CC2 | inconclusive: 11.2 µM [inhibitor, single point] |  | 
O=C1CO[C@H]2CCN(Cc3ccc4c(c3)CCO4)CC[C@@H]2N1Cc1ccc(O)cc1 | inconclusive: 15.8 µM [inhibitor, single point] |  | 
CC(C)(C)c1ccc(C(=O)Nc2ccc(C(=O)OCc3cc(=O)n4ccsc4n3)cc2)cc1 | inconclusive: 2.82 µM [inhibitor, partial curve, poor fit] |  | 

Compound | Potency | activity, negative = inhibition | outcome
CCN1c2cc(C(=O)Nc3ccc(C(C)C)cc3)ccc2C(=O)N2CCCCCC21 (stereo not drawn) |  | inactive: -11.2% | 
CCC1CCCCN1CCCNC(=O)c1cn(CC)c2ccc(S(=O)(=O)N(C)C3CCCCC3)cc2c1=O (stereo not drawn) | inconclusive: 2.82 µM [inhibitor, single point] |  | 
COCCOC1CCOC2(CCN(C(=O)Cn3c(=O)oc4ccccc43)CC2)C1 (stereo not drawn) | inconclusive: 5.62 µM [inhibitor, partial curve, poor fit] |  | 
CCc1ccccc1OCCN(C)Cc1ncc[nH]1 | inconclusive: 15.8 µM [inhibitor, single point] |  | 
O=C(c1ccccc1)c1ccc2nc(N3CCN(c4ccccc4)CC3)c3nncn3c2c1 | inconclusive: 11.2 µM [inhibitor, single point] |  | 
N#CC1CCN(C(=O)c2nc3sccn3c2Br)CC1 | inconclusive: 5.62 µM [inhibitor, single point] |  | 
Cc1nn(C)c(C)c1CCCN(C)C(=O)C1CCCN(Cc2cccnc2)CCC(=O)NCC1 (stereo not drawn) |  | inactive: -26.1% | 
NC(=O)Cc1c[nH]c2ncc(-c3ccc(F)c(Cl)c3)cc12 | inconclusive: 31.6 µM [inhibitor, single point] |  | 
COc1ccccc1CCN1CCCC(CN(C)C(=O)Nc2ccccc2)C1 (stereo not drawn) | active: 2.24 µM |  | 
O=C(c1cc(Cl)ccc1Cl)N1CCN(c2cc(-c3cccs3)[nH]n2)CC1 | inconclusive: 3.98 µM [inhibitor, single point] |  | 
CCOc1ccc(C(=O)N2CCC3(CC2)N=C(c2ccc(C)cc2)NO3)cc1 |  | inactive: -3.59% | 
O=C1NCc2ccccc2CC12CCCCN2Cc1cc2ccccc2o1 (stereo not drawn) | inconclusive: 10 µM [inhibitor, single point] |  | 
CN(C)c1cccc(C(=O)Nc2nc3ccc(S(=O)(=O)NC(C)(C)C)cc3s2)c1 | active: 11.2 µM |  | 
COc1ccccc1C(=O)Nc1c(C(=O)N2CCN(c3ccccc3F)CC2)oc2ccccc12 | inconclusive: 11.2 µM [inhibitor, single point] |  | 
COc1ccc(CCNC(=O)CC2CCOCC2)cc1OC |  | inactive: 51.8% | 
COc1ccc(NC(=O)CCCSc2nc(-c3ccco3)cc(C(F)(F)F)n2)cc1 |  | inactive: 85.4% | 
COc1cccc(CC(=O)N2CCC3(CC2)CN(C2CCC2)CC3CO)c1 (stereo not drawn) | inconclusive: 17.8 µM [inhibitor, single point] |  | 
COc1ccc(-c2cc(N3CCCC(NC(=O)c4c[nH]c5ccccc45)C3)n[nH]2)cc1 (stereo not drawn) | inconclusive: 3.98 µM [inhibitor, single point] |  | 
COCCN1C(=O)CS(=O)(=O)C12CCN(C(=O)c1ccccc1F)CC2 |  | inactive: 7.19% | 
CN1CCCC2(Cc3ccccc3CN(C(=O)Cc3cccc(Cl)c3)C2)C1 (stereo not drawn) | inconclusive: 5.01 µM [inhibitor, partial curve, poor fit] |  | 
Cc1ccc(C2Cn3nnc(-c4noc(-c5n[nH]c6c5CCCC6)n4)c3CO2)cc1 (stereo not drawn) | inconclusive: 1.58 µM [inhibitor, full curve, poor fit] |  | 
COC(=O)c1sc(-c2ccccc2)cc1NC(=O)Nc1ccccc1Cl | active: 11.2 µM |  | 
c1cc(-c2nc(-c3ccc(OC4CNC4)cc3)no2)ccn1 | active: 3.98 µM |  | 

Compound | Potency | activity, negative = inhibition | outcome
CCOC(=O)N1CCc2c(sc3c2c(=O)n(Cc2ccccc2)c(=O)n3CC(=O)Nc2cccc(C)c2)C1 | inconclusive: 3.55 µM [inhibitor, single point] |  | 
O=C(O)c1ccc(-c2nc3ncccc3[nH]2)cc1 | inactive |  | 
COc1ccc(C2Cn3nnc(C(=O)N4CCN(C(=O)Cc5ccccc5C)CC4)c3CO2)cc1 (stereo not drawn) | inconclusive: 12.6 µM [inhibitor, single point] |  | 
CCn1ccc(C(=O)N2CCC3(CC2)c2[nH]c4ccc(OC)cc4c2CCN3C)n1 | inconclusive: 5.62 µM [inhibitor, partial curve, poor fit] |  | 
COc1ccc(C2Cn3cnc(-c4nc(-c5cccs5)no4)c3CO2)cc1 (stereo not drawn) | inconclusive: 17.8 µM [inhibitor, single point] |  | 
Cc1ccc(C2=NC3(CCN(C(=O)c4ccc(C#N)cc4)CC3)ON2)cc1 | active: 4.47 µM |  | 
O=C(c1cccs1)N1CCC(Cc2nc(-c3ccncc3)n[nH]2)CC1 | inconclusive: 1.78 µM [inhibitor, single point] |  | 
Cc1noc(C2CCCCCN2C(=O)Cc2ccccc2)n1 (stereo not drawn) |  | inactive: -20.5% | 
O=C(c1ccc2c(c1)N(Cc1ccc(F)cc1)C(=O)c1ccccc1S2(=O)=O)N1CCCCCC1 | inconclusive: 10 µM [inhibitor, single point] |  | 
CC(C)N1C[C@@H]2OCC(=O)N(Cc3ccccn3)[C@@H]2C1 | inconclusive: 39.8 µM [inhibitor, single point] |  | 
O=C(Cc1ccc(Cl)cc1)N1CCN(c2nnc3ccccn23)CC1 |  |  | inactive
O=C([C@@H]1CNC[C@H](C(=O)N2CCC(c3ccncn3)CC2)C1)N1CCCC1 |  | inactive: 17.7% | 
CCO[C@H]1CN(C2CCN(CCc3ccccc3)CC2)C[C@@H]1O | inconclusive: 7.94 µM [inhibitor, partial curve, poor fit] |  | 
CN(Cc1cccnc1)c1nc2c(c(=O)[nH]1)CCN(Cc1ccccc1C#N)CC2 |  | inactive: -12% [at 5.79 µM] | 
Cc1ccccc1[C@H]1C[C@@H](O)[C@@H](O)[C@@H]1NS(=O)(=O)c1ccc(C#N)cc1 |  | inactive: -13.5% [at 44.1 µM] | 
O=C1CC(c2ccccc2)N(Cc2ccncc2)CCCN(C(=O)c2ccsc2)CCN1 (stereo not drawn) | active: 5.62 µM |  | 
CCOc1ccccc1C(=O)N1CCC[C@H]1c1nc(-c2ccc(C)cc2)no1 |  |  | inactive
CCCCC1C=CCN1S(=O)(=O)c1cccc(C(=O)NCC(F)(F)F)c1 (stereo not drawn) |  | inactive: -24.5% | 
COc1cc2c(cc1NC(=O)COc1ccc(Br)cc1C)oc1ccccc12 |  | inactive: 76.7% | 
Cc1ccc(C)c(N2CCN(C(=O)C3CCN(C(=O)c4cc5sccc5n4C)CC3)CC2)c1 | inconclusive: 8.91 µM [inhibitor, partial curve] |  | 
CCOC(=O)C1=C(C)N=C2SC=C(CC(=O)N3CCC(C)CC3)N2C1c1ccccc1F (stereo not drawn) | inconclusive: 3.98 µM [inhibitor, partial curve, poor fit] |  | 
CN(C)C(=O)c1ccc2c(c1)n(Cc1ccc(F)cc1)c(=O)c1ccnn12 | active: 10 µM |  | 
